T1: Mouse GLP-1R (mouse, UniProt O35659 22-463)
T1 sequence (looked up): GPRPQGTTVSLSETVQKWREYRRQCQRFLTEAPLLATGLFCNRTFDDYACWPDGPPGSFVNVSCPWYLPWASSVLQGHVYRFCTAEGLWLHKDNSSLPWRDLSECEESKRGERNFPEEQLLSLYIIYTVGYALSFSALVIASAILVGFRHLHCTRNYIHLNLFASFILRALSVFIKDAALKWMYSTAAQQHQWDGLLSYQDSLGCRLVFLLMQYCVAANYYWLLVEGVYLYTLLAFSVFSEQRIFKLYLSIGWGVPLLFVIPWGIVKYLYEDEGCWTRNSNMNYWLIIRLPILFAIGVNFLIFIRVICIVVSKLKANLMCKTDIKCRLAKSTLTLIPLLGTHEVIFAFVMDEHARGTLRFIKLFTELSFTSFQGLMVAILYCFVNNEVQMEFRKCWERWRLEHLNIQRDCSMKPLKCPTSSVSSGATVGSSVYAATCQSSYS

B1: GLP-1RA/FGF21 Fc fusion protein SEQ ID NO: 168 (Fc fusion)
chain: HGEGTFTSDLSKQLAKRLVREFIEWLIKGGHSSGKPPPKGGGGGGGSGGGGSGGGGSA[… human IgG4 Fc with changes …]GGGSGSAHPIPDSSPLLQFGGQVRQRYLYTDDACQTEAHLEIREDGTVGGAADQSPESLLQLKALKPGVIQILGVKTSRFLCQRPDGALYGSLHFDPEACSFRELLLEDGYNVYQSEAHGLPLHLPGCKSPHRDPAPRGPARFLPLPGLPPAPPEPPGILAPQPPDVGSSDPLSMVGSQGRSPSYAS
B2: GLP-1RA/FGF21 Fc fusion protein SEQ ID NO: 169 (Fc fusion)
chain: HGEGTFTSDLSKQLAKRLVREFIEWLIEGGHSSGKPPPKGGGGGGGSGGGGSGGGGSA[… human IgG4 Fc with changes …]GGGSGSAHPIPDSSPLLQFGGQVRQRYLYTDDACQTEAHLEIREDGTVGGAADQSPESLLQLKALKPGVIQILGVKTSRFLCQRPDGALYGSLHFDPEACSFRELLLEDGYNVYQSEAHGLPLHLPGCKSPHRDPAPRGPARFLPLPGLPPAPPEPPGILAPQPPDVGSSDPLSMVGSQGRSPSYAS
B3: GLP-1RA/FGF21 Fc fusion protein SEQ ID NO: 163 (Fc fusion)
chain: HGEGTFTSDKSKQLAEEAVQLFIEWLLAGGPSKEIISGGGGGGGSGGGGSGGGGSA[… human IgG4 Fc with changes …]GGGSGSAHPIPDSSPLLQFGGQVRQRYLYTDDACQTEAHLEIREDGTVGGAADQSPESLLQLKALKPGVIQILGVKTSRFLCQRPDGALYGSLHFDPEACSFRELLLEDGYNVYQSEAHGLPLHLPGCKSPHRDPAPRGPARFLPLPGLPPAPPEPPGILAPQPPDVGSSDPLSMVGSQGRSPSYAS
B4: GLP-1RA/FGF21 Fc fusion protein SEQ ID NO: 180 (Fc fusion)
chain: HGEGTFTSDKSKQLAERLVQLFIEWLLAGGPKKIRYSGGGGGGGSGGGGSGGGGSA[… human IgG4 Fc with changes …]GGGSGSAHPIPDSSPLLQFGGQVRQRYLYTDDACQTEAHLEIREDGTVGGAADQSPESLLQLKALKPGVIQILGVKTSRFLCQRPDGALYGSLHFDPEACSFRELLLEDGYNVYQSEAHGLPLHLPGCKSPHRDPAPRGPARFLPLPGLPPAPPEPPGILAPQPPDVGSSDPLSMVGSQGRSPSYAS
B5: GLP-1RA/FGF21 Fc fusion protein SEQ ID NO: 175 (Fc fusion)
chain: HGEGTFTSDKSKQLAKEAVQLFIEWLLAGGPKKIRYSGGGGGGGSGGGGSGGGGSA[… human IgG4 Fc with changes …]GGGSGSAHPIPDSSPLLQFGGQVRQRYLYTDDACQTEAHLEIREDGTVGGAADQSPESLLQLKALKPGVIQILGVKTSRFLCQRPDGALYGSLHFDPEACSFRELLLEDGYNVYQSEAHGLPLHLPGCKSPHRDPAPRGPARFLPLPGLPPAPPEPPGILAPQPPDVGSSDPLSMVGSQGRSPSYAS
B6: GLP-1RA/FGF21 Fc fusion protein SEQ ID NO: 176 (Fc fusion)
chain: HGEGTFTSDKSKQLAERAVQLFIEWLLAGGPKKIRYSGGGGGGGSGGGGSGGGGSA[… human IgG4 Fc with changes …]GGGSGSAHPIPDSSPLLQFGGQVRQRYLYTDDACQTEAHLEIREDGTVGGAADQSPESLLQLKALKPGVIQILGVKTSRFLCQRPDGALYGSLHFDPEACSFRELLLEDGYNVYQSEAHGLPLHLPGCKSPHRDPAPRGPARFLPLPGLPPAPPEPPGILAPQPPDVGSSDPLSMVGSQGRSPSYAS
B7: GLP-1RA/FGF21 Fc fusion protein SEQ ID NO: 177 (Fc fusion)
chain: HGEGTFTSDKSKQLAKRAVQLFIEWLLAGGPKKIRYSGGGGGGGSGGGGSGGGGSA[… human IgG4 Fc with changes …]GGGSGSAHPIPDSSPLLQFGGQVRQRYLYTDDACQTEAHLEIREDGTVGGAADQSPESLLQLKALKPGVIQILGVKTSRFLCQRPDGALYGSLHFDPEACSFRELLLEDGYNVYQSEAHGLPLHLPGCKSPHRDPAPRGPARFLPLPGLPPAPPEPPGILAPQPPDVGSSDPLSMVGSQGRSPSYAS
B8: GLP-1RA/FGF21 Fc fusion protein SEQ ID NO: 56 (Fc fusion)
chain: AHGEGTFTSDKSIQLEKEAVRLFIEWLLAGGHPSGKPPPKGGGGGGGSGGGGSGGGGSA[… human IgG4 Fc with changes …]GGGSGSAHPIPDSSPLLQFGGQVRQRYLYTDDACQTEAHLEIREDGTVGGAADQSPESLLQLKALKPGVIQILGVKTSRFLCQRPDGALYGSLHFDPEACSFRELLLEDGYNVYQSEAHGLPLHLPGCKSPHRDPAPRGPARFLPLPGLPPAPPEPPGILAPQPPDVGSSDPLSMVGSQGRSPSYAS
B9: GLP-1RA/FGF21 Fc fusion protein SEQ ID NO: 146 (Fc fusion)
chain: HGEGTFTSDKSQLLEKRLAHLFIEWLLAGGHKKGKPPPKGGGGGGGSGGGGSGGGGSA[… human IgG4 Fc with changes …]GGGSGSAHPIPDSSPLLQFGGQVRQRYLYTDDACQTEAHLEIREDGTVGGAADQSPESLLQLKALKPGVIQILGVKTSRFLCQRPDGALYGSLHFDPEACSFRELLLEDGYNVYQSEAHGLPLHLPGCKSPHRDPAPRGPARFLPLPGLPPAPPEPPGILAPQPPDVGSSDPLSMVGSQGRSPSYAS
B10: GLP-1RA/FGF21 Fc fusion protein SEQ ID NO: 182 (Fc fusion)
chain: HGEGTFTSDKSKQLAERLVRLFIEWLIAGGHSSGKPPPKGGGGGGGSGGGGSGGGGSA[… human IgG4 Fc with changes …]GGGSGSAHPIPDSSPLLQFGGQVRQRYLYTDDACQTEAHLEIREDGTVGGAADQSPESLLQLKALKPGVIQILGVKTSRFLCQRPDGALYGSLHFDPEACSFRELLLEDGYNVYQSEAHGLPLHLPGCKSPHRDPAPRGPARFLPLPGLPPAPPEPPGILAPQPPDVGSSDPLSMVGSQGRSPSYAS
B11: GLP-1RA/FGF21 Fc fusion protein SEQ ID NO: 150 (Fc fusion)
chain: HGEGTFTSDKSQLLEKELAHLFIEWLIAGGHSKGRPPPKGGGGGGGSGGGGSGGGGSA[… human IgG4 Fc with changes …]GGGSGSAHPIPDSSPLLQFGGQVRQRYLYTDDACQTEAHLEIREDGTVGGAADQSPESLLQLKALKPGVIQILGVKTSRFLCQRPDGALYGSLHFDPEACSFRELLLEDGYNVYQSEAHGLPLHLPGCKSPHRDPAPRGPARFLPLPGLPPAPPEPPGILAPQPPDVGSSDPLSMVGSQGRSPSYAS
B12: GLP-1RA/FGF21 Fc fusion protein SEQ ID NO: 172 (Fc fusion)
chain: HGEGTFTSDKSKQLAKRLVRLFIEWLIKGGHSSGKPPPSGGGGGGGSGGGGSGGGGSA[… human IgG4 Fc with changes …]GGGSGSAHPIPDSSPLLQFGGQVRQRYLYTDDACQTEAHLEIREDGTVGGAADQSPESLLQLKALKPGVIQILGVKTSRFLCQRPDGALYGSLHFDPEACSFRELLLEDGYNVYQSEAHGLPLHLPGCKSPHRDPAPRGPARFLPLPGLPPAPPEPPGILAPQPPDVGSSDPLSMVGSQGRSPSYAS
B13: GLP-1RA/FGF21 Fc fusion protein SEQ ID NO: 151 (Fc fusion)
chain: HGEGTFTSDKSQLLEKRLAHLFIEWLIAGGHSSGRYSPKGGGGGGGSGGGGSGGGGSA[… human IgG4 Fc with changes …]GGGSGSAHPIPDSSPLLQFGGQVRQRYLYTDDACQTEAHLEIREDGTVGGAADQSPESLLQLKALKPGVIQILGVKTSRFLCQRPDGALYGSLHFDPEACSFRELLLEDGYNVYQSEAHGLPLHLPGCKSPHRDPAPRGPARFLPLPGLPPAPPEPPGILAPQPPDVGSSDPLSMVGSQGRSPSYAS
B14: GLP-1RA/FGF21 Fc fusion protein SEQ ID NO: 155 (Fc fusion)
chain: HGEGTFTSDKSQLLEKRLAHLFIEWLIAGGHSKGRLPPKGGGGGGGSGGGGSGGGGSA[… human IgG4 Fc with changes …]GGGSGSAHPIPDSSPLLQFGGQVRQRYLYTDDACQTEAHLEIREDGTVGGAADQSPESLLQLKALKPGVIQILGVKTSRFLCQRPDGALYGSLHFDPEACSFRELLLEDGYNVYQSEAHGLPLHLPGCKSPHRDPAPRGPARFLPLPGLPPAPPEPPGILAPQPPDVGSSDPLSMVGSQGRSPSYAS
B15: GLP-1RA/FGF21 Fc fusion protein SEQ ID NO: 152 (Fc fusion)
chain: HGEGTFTSDKSQLLEKRLAHLFIEWLLAGGHSSIRPPPKGGGGGGGSGGGGSGGGGSA[… human IgG4 Fc with changes …]GGGSGSAHPIPDSSPLLQFGGQVRQRYLYTDDACQTEAHLEIREDGTVGGAADQSPESLLQLKALKPGVIQILGVKTSRFLCQRPDGALYGSLHFDPEACSFRELLLEDGYNVYQSEAHGLPLHLPGCKSPHRDPAPRGPARFLPLPGLPPAPPEPPGILAPQPPDVGSSDPLSMVGSQGRSPSYAS
B16: GLP-1RA/FGF21 Fc fusion protein SEQ ID NO: 167 (Fc fusion)
chain: HGEGTFTSDKSKQLAKRLVRHFIEWLIKGGHSSGKPPPKGGGGGGGSGGGGSGGGGSA[… human IgG4 Fc with changes …]GGGSGSAHPIPDSSPLLQFGGQVRQRYLYTDDACQTEAHLEIREDGTVGGAADQSPESLLQLKALKPGVIQILGVKTSRFLCQRPDGALYGSLHFDPEACSFRELLLEDGYNVYQSEAHGLPLHLPGCKSPHRDPAPRGPARFLPLPGLPPAPPEPPGILAPQPPDVGSSDPLSMVGSQGRSPSYAS
B17: GLP-1RA/FGF21 Fc fusion protein SEQ ID NO: 185 (Fc fusion)
chain: HGEGTFTSDKSKQLAERLAREFIEWLIAGGHSSGKPPPKGGGGGGGSGGGGSGGGGSA[… human IgG4 Fc with changes …]GGGSGSAHPIPDSSPLLQFGGQVRQRYLYTDDACQTEAHLEIREDGTVGGAADQSPESLLQLKALKPGVIQILGVKTSRFLCQRPDGALYGSLHFDPEACSFRELLLEDGYNVYQSEAHGLPLHLPGCKSPHRDPAPRGPARFLPLPGLPPAPPEPPGILAPQPPDVGSSDPLSMVGSQGRSPSYAS

For the first test, the target named is human glucagon-like peptide-1 (GLP-1) receptor (human, UniProt P43220 24-463). The test can be described thus: cell-based or functional assay.
In the case of B1, the “HTRF cAMP EC50” value was 0.0461 nM. Regarding B2, the “HTRF cAMP EC50” value is 0.0596 nM. B3: the “HTRF cAMP EC50” value worked out at 0.374 nM. The same measure, in the same setting: to B4 belongs 0.406 nM; to B5, 0.0909 nM. Turning to B6, the “HTRF cAMP EC50” value worked out at 0.0718 nM. Still for that read-out and setting: to B7 belongs 0.0486 nM; to B8, 0.015 nM.

Take B9: the “HTRF cAMP EC50” value was determined as 0.0123 nM. On the same count and under the same terms, to B10 belongs 0.123 nM.

For the molecule B11, the “HTRF cAMP EC50” value turned out to be 0.0115 nM.

As for B12, the “HTRF cAMP EC50” value turned out to be 0.254 nM.

Take B13: the “HTRF cAMP EC50” value was 0.00866 nM. Same read-out and setting: to B14 belongs 0.011 nM. As to B15, the “HTRF cAMP EC50” value was determined as 0.00943 nM. The same measure, in the same setting: to B16 belongs 0.309 nM; to B17, 0.0138 nM.

The target in another test is T1, Mouse GLP-1R. Briefly: cell-based or functional assay.
As to B8, the “HTRF cAMP EC50” value was determined as 0.0667 nM.

These data come from US20230250147A1 (Sanofi, published 2023).
